This passage reports activation results from PubChem BioAssay AID1346428 (National Center for Advancing Translational Sciences (NCATS), 2018).

Each structure is given as a SMILES string. Among all 48,000 compounds or so, about 1,200 (2.5%) were called active. Inconclusive results (about 2%) are left out.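 Rule for the calls: active = activation of at least 60% and not above a set upper limit (about 1 call in 100 departs from these limits); inconclusive = activation of 40% to 60%, or above that upper limit; inactive = activation under 40%.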 Some of the results follow.

Chain of UniProt O75388 (O75388 whole entry, looked up, the tested form may be a part): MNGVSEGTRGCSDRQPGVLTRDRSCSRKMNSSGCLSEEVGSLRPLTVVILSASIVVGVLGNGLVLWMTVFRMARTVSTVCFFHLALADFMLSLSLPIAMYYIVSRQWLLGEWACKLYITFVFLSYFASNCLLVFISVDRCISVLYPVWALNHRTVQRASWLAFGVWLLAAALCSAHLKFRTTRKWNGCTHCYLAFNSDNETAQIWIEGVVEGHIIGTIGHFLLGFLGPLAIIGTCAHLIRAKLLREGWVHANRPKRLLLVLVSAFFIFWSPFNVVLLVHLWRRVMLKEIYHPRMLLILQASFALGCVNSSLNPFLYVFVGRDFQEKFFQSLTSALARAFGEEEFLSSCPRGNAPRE

The test addresses Probable G-protein coupled receptor 32 (Homo sapiens) (UniProt O75388). Put plainly: qHTS for Agonists of Human Resolvin D1 Receptor DRV1. Note: 0% is about no effect. The conditions noted are these: CHO-K1 GPR32 beta-arrestin PathHunter luminescence, 90 min; at 76.9 µM; stronger effect = higher value; zero percent set by DMSO-only wells. The method in brief:
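Agonism was scored by beta-Gal fragment complementation (chemiluminescent read, 1 h detection at ambient temperature) reporting beta-arrestin binding to GPR32 in engineered CHO-K1 cells. Compound treatment lasted 90 min at 37 C, normalized to a DMSO basal control.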
Background: Quantitative high-throughput screening tests each substance at several concentrations.
Turning to `CCc1ccc(-n2c(=O)c3c4c(sc3n(CC(=O)NCCCOC)c2=O)CCC4)cc1`, the activation is inactive: -19.2%.

In the case of `COc1cccc(CC(=O)NCc2ccc3c(c2)CCN3C(C)=O)c1`, the activation was inactive: -14.8%.

Take `CCc1ccccc1NC(=O)C1CCN(c2nn3c(=O)cc(C)nc3s2)CC1`: the activation was inactive: 7.98%.

For `CN(C)S(=O)(=O)Nc1ccc(-c2cn3ccsc3n2)cc1`, the activation was inactive: 8.71%.

On to `COC(=O)c1ccccc1NC(=O)c1nc(S(=O)(=O)Cc2ccccc2F)ncc1Cl`, for which the activation is inactive: -9.46%.

On to `C[C@]12CC[C@@H]3c4ccc(O)cc4CC[C@H]3[C@@H]1C[C@@H](O)[C@@H]2O`, for which the activation was inactive: -3.95%.

As to `Cc1ccc(-n2nc(C(=O)N3CCN(c4ccccc4)CC3)c(=O)n(C)c2=O)cc1`, the activation is inactive: 3.48%.

For the compound `CC(NC(=O)c1ccc2nc(CCc3ccccc3)oc2c1)c1ccccc1` (stereo not drawn), the activation was inactive: -13.5%.

For `Cc1ccccc1Cn1c(C)c(CNCc2ccccc2)c(C(=O)O)c1C`, the activation is inactive: 0.048%.

Consider `CC(C)Oc1ccc(CNC(=O)c2ccc3nc(SCc4ccc(F)cc4)n(C)c3c2)cc1`, for which the activation is inactive: 1.14%.

In the case of `Cc1ccc(C)c(NC(=O)CCc2c(C)n(C)c3cc(-c4ccccc4C)nn3c2=O)c1`, the activation was inactive: -11.5%.

In the case of `COc1ccc(NC(=O)c2nc(SCc3ccccc3F)ncc2Cl)cc1`, the activation was inactive: -11.7%.

As for `O=C(NCCc1ccc(Cl)cc1)c1ccc2c(c1)N(Cc1ccccc1)CCS2`, the activation was inactive: -11.4%.

Consider `COc1cccc(N2CCN(C(=O)c3ccc(CS(=O)c4cccc(Cl)c4)o3)CC2)c1` (stereo not drawn), for which the activation was inactive: -12.6%.

In the case of `O=C(Nc1ccc2oc(-c3cccnc3)nc2c1)c1ccc(-c2cccc(OC(F)(F)F)c2)o1`, the activation is inactive: -5.58%.

Take `COc1ccc(NC(=O)CN(C)S(=O)(=O)c2ccc3[nH]c4c(c3c2)CCCC4)cc1OC`: the activation is inactive: 3.5%.

For `Cc1ccc(CN(C(=O)c2ccccc2Br)C2CCS(=O)(=O)C2)o1` (stereo not drawn), the activation is inactive: -17.8%.

Regarding `CC1CCC(NC(=O)c2ccc3c(c2)N(Cc2cccc(Cl)c2)C(=O)c2ccccc2S3=O)CC1` (stereo not drawn), the activation was inactive: -23.6%.

For the compound `O=C(NCc1ccc(Cl)cc1)C(=O)Nc1cccc(Br)c1`, the activation is inactive: 38.3%.

For the compound `O=C(Nc1ccc2oc(-c3ccc4ccccc4c3)nc2c1)c1cc(Br)ccc1Cl`, the activation is inactive: 0.225%.

With `Cn1c(=O)c2c(SCC(=O)NCc3ccco3)nc(-c3ccccc3F)nc2n(C)c1=O`, the activation was inactive: -10.8%.

With `CCOc1ccccc1NC(=O)COc1cccc2c(=O)n(CCOC)ccc12`, the activation was inactive: -2.18%.

Consider `COc1ccc(NC(=O)CC2C(=O)N(c3ccccc3)C(=O)N2Cc2cccnc2)cc1` (stereo not drawn), for which the activation is inactive: -4.03%.
